# According to PubChem BioAssay AID720542 (National Center for Advancing Translational Sciences (NCATS), 2013):
# Several values for one entry are separate records, joined by “and”; a condition that tells them apart may be missing. Equal values may be shown once. Among all 360,000 compounds or so, about 740 (0.21%) were called active. The inconclusive results got no clear call from the source; some entries with a clear call stand among them for comparison. Calls come from the whole dose curve; as a rule, active = well fitted inhibition curve with a large enough effect; inconclusive = small, poorly fitted or top-dose-only effect; inactive = no such curve, though single readings can be large or run the other way. A potency beside an inconclusive call is a rough fit, not a confirmed value.
# Test system: Plasmodium falciparum AMA1 (3D7) - RON2 peptide interaction
# Test: qHTS for Inhibitors of AMA1-RON; Towards Development of Antimalarial Drug Lead: Primary Screen; note: nearly all actives have a fitted effect of over 45% in size;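 for activity change, negative = inhibition: 0% = vehicle wells and -100% = peptide control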
# Conditions: AlphaScreen AMA1-biotinylated RON2 peptide binding; activity change, negative = inhibition: at 58.2 µM (top of the series) unless noted
# How it was run: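 AMA1 (3D7) with his tag at 25 nM final met compounds first, then biotinylated RON2 peptide at 25 nM; detection used donor plus acceptor beads, 10 µg/mL apiece, read by AlphaScreen after 30 min at room temperature.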
# Potency is the fitted concentration of half-maximal effect; tags give direction and shape of the fitted curve.
Structure (SMILES),Potency,"activity change, negative = inhibition"
COc1ccc(OC)c(CN2CCN(C(=O)c3cccc4ccccc34)CC2)c1,"inconclusive: 18.9 µM [inhibitor, single point]",
N/C(=N\OC(=O)COc1ccc2ccccc2c1Br)c1ccccn1,inactive,
CC(C)C(=O)NC(c1ccccc1)c1cc([N+](=O)[O-])c2cccnc2c1O (stereo not drawn),"inconclusive: 28.2 µM [inhibitor, single point]",
CNc1cc(CSC)nc(SCc2ccc(Cl)cc2Cl)n1,"inconclusive: 37.7 µM [inhibitor, single point]",
COc1ccc(/C=C2/SC(=S)N(n3c(C)ccc3C)C2=O)cc1,"inconclusive: 39.8 µM [inhibitor, single point]",
Cc1cc2ccccn2c1C(=O)c1cc([N+](=O)[O-])cc([N+](=O)[O-])c1,"inconclusive: 10 µM [inhibitor, partial curve]",
COc1ccc(N2CCN(c3oc(-c4ccco4)nc3C#N)CC2)cc1,"inconclusive: 11.2 µM [inhibitor, partial curve]",
COc1ccc(N(C)S(=O)(=O)c2cccc(C(=O)N3CCN(c4ccccc4)CC3)c2)cc1,"inconclusive: 14.1 µM [inhibitor, partial curve, poor fit]",
COc1ccc(N=C/C=C2\C=C(c3ccccc3)OC(C)(C)O2)cc1,"inconclusive: 29.9 µM [inhibitor, single point]",
COc1ccc(N2CCN(Cc3nc4ccccc4n3C)CC2)cc1,"inconclusive: 8.91 µM [inhibitor, partial curve]",
CCOc1ccc(OCC)c(S(=O)(=O)NCCOC23CC4CC(CC(C4)C2)C3)c1,inactive,
COc1ccc(C(=O)/C=C/c2ccsc2)cc1CSCC(=O)O,inactive,
c1cnc2ccc(C(c3nnnn3C3CCCCC3)N3CCN4CCCC4C3)cc2c1 (stereo not drawn),inactive,
Cc1ccc(O)c(N=Nc2ccccc2)n1,inactive,
O=[N+]([O-])c1cc(C(F)(F)F)cc([N+](=O)[O-])c1NN=C1CCCCC1,"inconclusive: 8.91 µM [inhibitor, partial curve]",
O=C(CSc1cccc(C(F)(F)F)c1)Nc1nnc(C2CC2)s1,inactive,
Cc1sc(NC(=O)c2ccco2)nc1-c1ccccc1,inactive,
CC(OC(=O)c1ccco1)C(=O)Nc1ccc(C(F)(F)F)cc1 (stereo not drawn),"inconclusive: 39.8 µM [inhibitor, single point]",
CCn1cc(C(=O)NC(C)C23CC4CC(CC(C4)C2)C3)cn1 (stereo not drawn),"inconclusive: 3.16 µM [inhibitor, full curve]",
Cc1ccc(NS(=O)(=O)c2ccc(N3CCN(c4ccc(O)cc4)CC3)c([N+](=O)[O-])c2)c(C)c1,"inconclusive: 20 µM [inhibitor, single point]",
O=C(COc1ccc(S(=O)(=O)N2CCCCC2)cc1)NCc1ccncc1,inactive,
C[C@H]1CCC(=O)N(CCSc2ccc(Br)cc2)CC1,inactive,
Cc1cc(N2CCCC2)ccc1/C=C1/C(=O)N(C)C(=S)N1C,"inconclusive: 2.82 µM [inhibitor, full curve, poor fit]",
O=S(=O)(Nc1ccc(N=Nc2ccc(O)c3ccccc23)cc1)c1ccccc1,"inconclusive: 28.2 µM [inhibitor, partial curve]",
N#Cc1nc(Cc2cccc3ccccc23)oc1N1CCCCC1,"inconclusive: 12.6 µM [inhibitor, partial curve]",

Structure (SMILES),Potency,"activity change, negative = inhibition"
O=C(OCc1ccccc1Cl)c1cc([N+](=O)[O-])ccc1N1CCOCC1,inactive,
COC(=O)[C@H](Cc1ccccc1)NC(=O)CC[C@H]1O[C@@H](n2ccc(=O)[nH]c2=O)[C@H](O)[C@@H]1O,inactive,
CC1=NN(c2ccccc2)C(=O)/C1=C/C=C/C=C/N(C)C,"inconclusive: 20 µM [inhibitor, single point]",
Cc1ccc2c(c1)c1c3n2CCCNC3CCC1 (stereo not drawn),inactive,
Clc1ccc2oc(-c3ccccc3)cc(=NCCCN3CCOCC3)c2c1,inactive,
O=C(N=Nc1c(O)n(Cc2ccccc2)c2ccccc12)c1ccncc1,"inconclusive: 39.8 µM [inhibitor, single point]",
C[C@H]1CN(S(=O)C(C)(C)C)[C@H](CCO)/C1=C\c1ccccc1 (stereo partly drawn),inactive,
O=[N+]([O-])c1ccc(N2CCOCC2)cc1SCc1ccco1,"inconclusive: 2.82 µM [inhibitor, full curve, poor fit]",
CCOC(=O)C1=C(Cc2ccc(OC)cc2)C(=O)c2ccccc2C1=O,"inconclusive: 29.9 µM [inhibitor, partial curve]",
COc1ccccc1NS(=O)(=O)c1cccc(C(=O)N/N=C/c2c(CO)cnc(C)c2O)c1,"inconclusive: 15.8 µM [inhibitor, partial curve]",
CSc1ccc2c(c1)C(N1CCN(C)CC1)Cc1ccccc1S2 (stereo not drawn),"inconclusive: 22.4 µM [inhibitor, partial curve] and inconclusive: 28.2 µM [inhibitor, partial curve]",
CCCCN1C(=O)/C(=C/C=C2/CC(C)(C)CN2C)SC1=S,"inconclusive: 14.1 µM [inhibitor, partial curve]",
COc1ccc(C(=O)C2CCCN(Cc3cn(C)nc3-c3ccccc3)C2)cc1F (stereo not drawn),inactive,
COc1cc(NC(=O)c2cnc(N)s2)cc(C(=O)Nc2cccc(C(F)(F)F)c2)c1,"inconclusive: 20 µM [inhibitor, single point]",
O=C(C1CCCN(S(=O)(=O)c2ccc(Br)s2)C1)N1CCN(c2ccccc2)CC1 (stereo not drawn),"inconclusive: 10 µM [inhibitor, partial curve]",
CC(=O)C1=NN(c2ccccc2)C(c2cccs2)N1c1ccc(N(C)C)cc1 (stereo not drawn),"inconclusive: 26.7 µM [inhibitor, single point]",
CC(C)(C)C(=O)Cn1c(=N)n(Cc2ccccc2)c2ccccc21,inactive,
Cc1cc(C)n(C(C)CNC(=O)c2ccc3c(c2)OCO3)n1 (stereo not drawn),inactive,
CC1CCC(NC(=O)CCNC(=O)c2ccc(Br)cc2)CC1 (stereo not drawn),"inconclusive: 7.94 µM [inhibitor, full curve]",
Cc1ccc(N2C(=O)CCC(C(=O)O)C2c2cccs2)cc1 (stereo not drawn),inactive,
CC(=O)C1=NN(c2ccccc2)C(c2ccc3c(c2)OCO3)N1c1ccc(N2CCOCC2)cc1 (stereo not drawn),"inconclusive: 25.1 µM [inhibitor, single point]",
O=[N+]([O-])/C=C/c1cn(Cc2ccc(Cl)cc2)c2ccccc12,,inconclusive: -30.3% [inhibitor]
COc1ccc(N=c2scc(-c3ccc(OC)cc3)n2CCO)cc1,"inconclusive: 12.6 µM [inhibitor, partial curve]",
C=C(C)CSC1=C(C#N)C(c2ccccc2Cl)CC(=O)N1 (stereo not drawn),inactive,
CCOc1cc(CNc2ccc3c(c2)OCCO3)cc(Br)c1OCC,"inconclusive: 31.6 µM [inhibitor, single point]",

Structure (SMILES),Potency,"activity change, negative = inhibition"
CCN(CC)c1ccc(/C=C2\C(=O)N(c3nnc(C)c(=O)[nH]3)N=C2C)cc1,active: 14.1 µM,
O=C(Nc1nnc(SCC(=O)N2CCCc3ccccc32)s1)c1ccccc1,,inactive: 2.95% [at 2.32 µM]
CN(C)C(=O)COc1ncnc2scc(-c3ccc(F)cc3)c12,inactive,
COc1cc(/C=N/NC(=O)CCn2cnc(-c3ccccc3)c2-c2ccccc2)ccc1O,"inconclusive: 4.47 µM [inhibitor, partial curve]",
O=[N+]([O-])c1ccc(C(=S)N2CCN(c3ccc(F)cc3)CC2)cc1,"inconclusive: 15.8 µM [inhibitor, partial curve]",
O=C(/C=C/c1cn(-c2ccccc2)nc1-c1ccc2c(c1)OCCO2)NCCCN1CCOCC1,"inconclusive: 3.16 µM [inhibitor, full curve]",
CCC(CC)COC(=O)C1=C(C)NC(=O)NC1c1ccc(N(C)C)cc1 (stereo not drawn),"inconclusive: 25.1 µM [inhibitor, single point]",
CN(CCCOc1ccccc1F)Cc1ccccc1,"inconclusive: 20 µM [inhibitor, partial curve]",
Cn1c(=O)oc2cc(S(=O)(=O)NCCC(=O)NC3CCCc4ccccc43)ccc21 (stereo not drawn),inactive,
CC(=O)Nc1ccc(NC(=O)C(C)OC(=O)c2ccc(C)s2)cc1 (stereo not drawn),inactive,
COC(=O)c1ccccc1NC(=O)C1CCN(S(=O)(=O)c2cc(OC)ccc2OC)CC1,"inconclusive: 22.4 µM [inhibitor, partial curve]",
O=C(COC(=O)c1ccc(OC(F)F)cc1)NCCC1=CCCCC1,inactive,
Cc1ccc(NC(=O)c2sc(C)nc2C)c(C)c1,inactive,
CNC(=O)C(C#N)(Cc1cc(C(C)=O)ccc1OC)Cc1cc(C(C)=O)ccc1OC,inactive,
O=C(Nc1c(-c2ccccc2)[nH][nH]c1=O)c1cccc(C(F)(F)F)c1,inactive,
COc1ccc(/C=N/NC(=O)c2ccncc2)cc1CN1CCCc2ccccc21,"inconclusive: 39.8 µM [inhibitor, single point]",
COc1ccc(CNC2c3ccccc3-c3ccccc32)cc1OC,"inconclusive: 14.1 µM [inhibitor, partial curve]",
CC(C)(C)c1ccc(S(=O)(=O)NCc2ccc(C(=O)NCC3CCCO3)cc2)cc1 (stereo not drawn),inactive,
COc1ccc(C(=O)Nc2ccc(C3(C#N)CCCC3)cc2)cc1,inactive,
COc1cc(Cl)c(CN2CCCC(CO)(Cc3cccc(Cl)c3)C2)cc1OC (stereo not drawn),inactive,
CN1C(=O)NC(=O)/C(=C/c2ccc([N+](=O)[O-])s2)C1=O,"inconclusive: 2.82 µM [inhibitor, partial curve]",
O=C(O)c1ccccc1NC(=O)C1CCN(S(=O)(=O)c2cccc3nsnc23)CC1,inactive,
CCN1C(=O)C(CC(=O)Nc2ccc(OC)cc2)N(CCc2ccccc2F)C1=S (stereo not drawn),"inconclusive: 39.8 µM [inhibitor, partial curve]",
